This is one part of the list.

The test relates to HSkMC (human skeletal muscle cells). The test is described as follows: cytotoxicity call (relative viability < 0.9). To be noted: 10 µM.
Consider `COc1ccc(-c2cnc3c(c2)C(=O)N([C@H](C)CO)C[C@H](C)[C@H](CN(C)S(=O)(=O)c2ccc(F)cc2)O3)cc1`, for which the cytotoxicity call is “inactive”.

Turning to `C[C@H](CO)N1C[C@H](C)[C@@H](CN(C)C(=O)CN2CCOCC2)Oc2cc(C#Cc3cccc(F)c3)ccc2S1(=O)=O`, the cytotoxicity call was “inactive”.

Turning to `COc1ccc(S(=O)(=O)N(C)C[C@@H]2OCCCC[C@@H](C)Oc3ccc(NS(=O)(=O)c4ccc(Cl)cc4)cc3C(=O)N([C@H](C)CO)C[C@@H]2C)cc1`, the cytotoxicity call was “inactive”.

Regarding `C[C@@H]1CN([C@H](C)CO)C(=O)c2cccc(NS(=O)(=O)c3cccs3)c2O[C@H]1CN(C)Cc1ccncc1`, the cytotoxicity call was “inactive”.

Consider `C[C@H]1CN([C@@H](C)CO)C(=O)c2cccc(NC(=O)C3CCOCC3)c2O[C@@H]1CN(C)Cc1ccc(Oc2ccccc2)cc1`, for which the cytotoxicity call is “inactive”.

As for `C[C@H](CO)N1C[C@H](C)[C@@H](CN(C)Cc2cccc(F)c2)OCc2ccccc2-c2c(n(C)c3ccccc23)C1=O`, the cytotoxicity call is “inactive”.

Regarding `CC(C)C#Cc1cnc2c(c1)C(=O)N([C@@H](C)CO)C[C@H](C)[C@H](CN(C)C(=O)c1ccc3c(c1)OCO3)O2`, the cytotoxicity call is “inactive”.

With `COc1ccc(S(=O)(=O)N(C)C[C@H]2Oc3c(NS(=O)(=O)c4ccc(C)cc4)cccc3C(=O)N([C@@H](C)CO)C[C@@H]2C)cc1`, the cytotoxicity call was “inactive”.

For the compound `C[C@H](CO)N1C[C@H](C)[C@H](CN(C)C(=O)Nc2ccc(F)cc2)OCCCC[C@H](C)Oc2ccc(NC(=O)Cc3ccccc3)cc2C1=O`, the cytotoxicity call is “inactive”.

`C[C@H](CO)N1C[C@H](C)[C@H](CN(C)Cc2ccc(C(=O)O)cc2)OCCCC[C@H](C)Oc2ccc(NC(=O)c3ccccc3)cc2C1=O`: the cytotoxicity call is “inactive”.

As to `C[C@@H]1CN([C@H](C)CO)C(=O)c2cccc(NS(=O)(=O)c3cccs3)c2O[C@H]1CN(C)CC1CC1`, the cytotoxicity call was “inactive”.

Regarding `CC(S)C(=O)NCC(=O)O` (configuration not stated), the cytotoxicity call was “inactive”.

Regarding `C[C@H](CO)N1C[C@H](C)[C@@H](CN(C)Cc2ccc(-c3ccccc3)cc2)Oc2ccc(NC(=O)Cc3cn(C)c4ccccc34)cc2CC1=O`, the cytotoxicity call is “inactive”.

Consider `CC(C)NC(=O)N(C)C[C@@H]1Oc2ccc(NC(=O)C3CCCCC3)cc2C(=O)N([C@@H](C)CO)C[C@H]1C`, for which the cytotoxicity call is “inactive”.

On to `Cc1noc(C)c1NC(=O)Nc1ccc2c(c1)C(=O)N([C@@H](C)CO)C[C@@H](C)[C@H](CN(C)C(=O)Nc1ccccc1)OCCCC[C@H](C)O2`, for which the cytotoxicity call is “inactive”.

`CCO[C@H]1OC(C(=O)N2CCN(Cc3ccc4c(c3)OCO4)CC2)=C[C@@H](c2ccc(C(F)(F)F)cc2)[C@@H]1CCCOC(=O)NCCCCCC(=O)NO`: the cytotoxicity call was “inactive”.

In the case of `COc1cc(NC(C)CCCN)c2ncccc2c1.O=P(O)(O)O.O=P(O)(O)O` (configuration not stated), the cytotoxicity call is “inactive”.

As to `COc1cccc(NC(=O)C[C@@H]2CC[C@H]3[C@H](COc4ccc(NC(=O)C5CCOCC5)cc4C(=O)N3C)O2)c1`, the cytotoxicity call was “inactive”.

Regarding `O=C1N[C@@H](Cc2c[nH]c3ccccc23)COC(=O)[C@H](Cc2ccc(F)cc2)CCC=CC[C@@H]1CC(=O)N(CCO)Cc1ccccc1`, the cytotoxicity call is “inactive”.

For the compound `Cc1noc(C)c1NC(=O)Nc1cccc2c1O[C@@H](CN(C)Cc1ccc(-c3ccccc3)cc1)[C@H](C)CN([C@@H](C)CO)C2=O`, the cytotoxicity call was “inactive”.

For the compound `C=CC(=O)N1CC[C@@H](Oc2nc(Nc3ccc(N4CCC(N5CCN(C)CC5)CC4)cc3)c(C(N)=O)nc2CC)C1`, the cytotoxicity call was “active”.

For the compound `CN1CCN([C@@H]2CCN[C@H]2Cc2cnn(C)c2)CC1`, the cytotoxicity call is “inactive”.

As to `C[C@@H]1CCCCO[C@H](CN(C)Cc2ccccc2)[C@H](C)CN([C@@H](C)CO)C(=O)c2cc(NC(=O)c3ccccc3)ccc2O1`, the cytotoxicity call is “inactive”.

For the compound `Cc1ccc(S(=O)(=O)N(C)C[C@H]2Oc3ccc(NC(=O)CCCN(C)C)cc3CC(=O)N([C@H](C)CO)C[C@H]2C)cc1`, the cytotoxicity call is “inactive”.

For the compound `C[C@H](CO)N1C[C@H](C)[C@H](CN(C)S(=O)(=O)c2ccc(Cl)cc2)Oc2c(NS(C)(=O)=O)cccc2C1=O`, the cytotoxicity call is “inactive”.

As for `CC(C)=CC[C@H]1O[C@]2(O)[C@@H]([C@H]3CC[C@@H]4[C@@]5(C)CC[C@H](O[C@@H]6O[C@H](CO[C@@H]7O[C@@H](C)[C@H](O)[C@@H](O)[C@H]7O)[C@@H](O)[C@H](O)[C@@H]6O)C(C)(C)[C@@H]5CC[C@@]4(C)[C@]3(C)[C@H]2O)[C@@]1(C)O[C@@H]1O[C@@H](C)[C@H](O)[C@@H](O)[C@H]1O`, the cytotoxicity call is “inactive”.

Regarding `C[C@@H]1CN([C@@H](C)CO)C(=O)c2cc(NC(=O)Cn3cnnn3)ccc2O[C@@H]1CN(C)S(=O)(=O)c1cccs1`, the cytotoxicity call was “inactive”.
